# Measured values as given in PubChem BioAssay AID588855 (National Center for Advancing Translational Sciences (NCATS), 2011).
# About 5,000 (1.2%) of roughly 410,000 compounds were called active. Inconclusive results, whose numbers are uncertain, are shown with a selection of clear calls. Calls follow the shape of the dose curve; as a rule, active = well fitted inhibition curve with a large enough effect; inconclusive = small, poorly fitted or top-dose-only effect; inactive = no such curve, though single readings can be large or run the other way. Where the call is inconclusive, the potency comes from a doubtful curve fit.
# Assay: qHTS for Inhibitors of TGF-b; also: nearly all actives have a fitted effect of over 65% in size
# Conditions: HepG2 CAGA-GFP TGF-b/SMAD3 reporter, GFP fluorescence, 18 h, TGF-beta stimulated, 500 pg/mL final; series mostly up to 46.1 µM; activity, negative = inhibition: at the top concentration
# Method in brief: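 First, reporter cells (HEPG2 CAGA-GFP) rested 2 h at 37 degrees C. Next, compounds were pinned in and TGF-beta added to 500 pg/mL final. After 18 h, GFP was imaged per cell and summed per well.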
# % is scaled to controls: 0 for no effect and ±100 for the full control effect; potency is read from the fitted curve at half-maximal effect; tags tell the direction and shape of the fitted curve.
SMILES,Potency,"activity, negative = inhibition"
COc1ccc2[nH]cc(/C=N/NS(=O)(=O)c3ccc(C)cc3)c2c1,"inconclusive: 15.8 µM [inhibitor, partial curve, poor fit]",–
Cc1cccc(COCC(Cc2ccccc2)N2CCN(C(=O)c3cc(Cl)cc(Cl)c3)CCC2=O)c1 (centres undefined),active: 12.6 µM,–
CCCCNC(=O)C1CCN(c2nc3ccc(C)cc3[nH]2)CC1,–,inactive: -47%
O=C(C[C@H]1C[C@H](C(=O)N2CCOCC2)[C@@]2(CCC3CCCC3)c3[nH]c4cc(-c5ccco5)ccc4c3CCN2C1=O)NCc1ccco1,"inconclusive: 8.91 µM [inhibitor, partial curve, poor fit]",–
CC(C)c1ccc(CN(Cc2ccco2)c2cnc(S(C)(=O)=O)nc2C(=O)Nc2ccccc2)cc1,"inconclusive: 15.8 µM [inhibitor, single point]",–
Cc1cccc(N2CCN(C(=O)c3csc4ccccc34)CC2C)c1 (centres undefined),"inconclusive: 22.4 µM [inhibitor, single point]",–
O=C(N/N=C(\c1ccccc1)c1ccccn1)c1ccccc1Cl,"inconclusive: 15.8 µM [inhibitor, partial curve, poor fit]",–
COc1ccc(-c2nc(C)c(CCNS(=O)(=O)c3ccc(F)cc3)s2)cc1OC,–,inactive: 1.58%
Cc1ccccc1CS(=O)(=O)c1cnc2ccccc2n1,"inconclusive: 35.5 µM [inhibitor, single point]",–
COCCn1c(SCC(=O)N2CCCc3ccccc32)nc2ccccc2c1=O,–,inactive: -17.1%
Cn1c(SCC(=O)Nc2ccc(Cl)cn2)nnc1C1CC1,–,inactive: 0%
O=C(Nc1ccc2c(c1)OCO2)c1cc(C2CCCCN2C(=O)c2ccc(Cl)cc2)on1 (centres undefined),"inconclusive: 10 µM [inhibitor, partial curve, poor fit]",–
Cc1ccc(C(=O)N/N=C\c2ccccn2)cn1,–,inactive: 8.81%
O=C(Cn1c(=O)n(Cc2ccc(C(=O)NCc3ccc4c(c3)OCO4)cc2)c(=O)c2ccccc21)Nc1ccc(F)cc1F,–,inactive: 32.4%
CC(C)CN(C(=O)CSc1ccc2c(c1)OCCO2)c1c(N)n(CC(C)C)c(=O)[nH]c1=O,"inconclusive: 6.31 µM [inhibitor, single point]",–
CCCc1nc2ccc(C)cn2c1Cc1ccccc1C(F)(F)F,"inconclusive: 35.5 µM [inhibitor, partial curve, poor fit]",–
Cc1ccc(NC(=O)CN(C)C(=O)c2cc(-c3ccccc3)nn2-c2ccccc2)cc1,active: 11.2 µM,–
O=C(NC(=S)Nc1cc(Cl)ccc1O)c1cccc(Br)c1,active: 10 µM,–
COc1nc(OC)nc(N2CCC(C(=O)NCc3cccs3)CC2)n1,"inconclusive: 22.4 µM [inhibitor, single point]",–
